# The campaign covered roughly 28,000 compounds. About 410 (1.5%) were called active. The inconclusive results got no clear call from the source; some entries with a clear call stand among them for comparison. Rule as the data show it: active = activation above about 52%; inconclusive = no clear call, values can overlap the other calls; inactive = below that.
# Experiment: mutant p53 pathway re-activators, primary screen, cell-based, SW480, luciferase, single point, HTS (AID 624151)
# Settings: SW480 PUMA-promoter luciferase, p53 mutant reactivation; at 9.98 µM; stronger effect = higher value
row,Compound,activation
1,COc1ccc(-c2nnc(SCC(=O)Nc3cccc(SC)c3)o2)cc1,inconclusive: 59.2%
2,Cc1cc(O)c2c(c1)C(=O)c1cc(OC3OC(COC(=O)CC(=O)O)C(O)C(O)C3O)cc(O)c1C2=O (centres undefined),inactive: -1.91%
3,Cc1cccc(OCC(=O)Nc2cccc(-c3nc4ccccc4s3)c2)c1C,active: 95.1%
4,COc1cc([C@@H](O)[C@@H](CO[C@@H]2O[C@H](CO)[C@@H](O)[C@H](O)[C@H]2O)Oc2ccc(/C=C/CO)cc2OC)ccc1O,inactive: -5.88%
5,C[C@@H]1CN([C@@H](C)CO)C(=O)Cc2cc(NC(=O)CCCN(C)C)ccc2O[C@H]1CN(C)C(=O)Nc1ccc(F)cc1,inactive: 5.22%
6,COc1ccccc1Nc1nc(N)nc(CSc2ncccn2)n1,active: 85.7%
7,Cc1ccc(NC(=O)C(C)Oc2ccc(Cl)cc2Cl)c([N+](=O)[O-])c1 (centres undefined),active: 77%
8,COc1ccc2c(c1)c(=O)oc1cc(O)ccc12,inconclusive: 64.1%
9,Cc1cc(C)nc(Nc2n[nH]c(COc3ccccc3)n2)n1,inconclusive: 55.9%
10,Cc1cccc(OCC(=O)Nc2cccc(-c3nnc(-c4ccco4)o3)c2)c1C,inconclusive: 57.2%
11,Cc1ccc(CCC(=O)Nc2cc(Cl)cc(Cl)c2)o1,inconclusive: 51%
12,CC(=O)c1ccc(NC(=O)COc2ccccc2C(N)=O)cc1,inconclusive: 59.4%
13,CC(C)NC(=O)N(C)C[C@@H]1OCCCC[C@H](C)Oc2ccc(NC(=O)Nc3ccc(C(F)(F)F)cc3)cc2C(=O)N([C@H](C)CO)C[C@@H]1C,inactive: -57%
14,COc1ccc2nc(Sc3c([N+](=O)[O-])nc(C)n3Cc3ccccc3)[nH]c2c1,inconclusive: 59%
15,COC(=O)COc1cccc(NC(=O)c2cccs2)c1,inactive: -6.12%
16,Cc1nc(SCC(=O)Nc2cccc(C(=O)O)c2)[nH]c(=O)c1C,inactive: 0.893%
17,O=C(COc1ccc(Cl)cc1)Nc1ncccn1,active: 74.1%
18,COc1cc(CO)ccc1OCC(=O)Nc1ccc(Br)cc1,inconclusive: 52.5%
19,CC(C)NC(=O)Nc1ccc2c(c1)C(=O)N([C@@H](C)CO)C[C@@H](C)[C@@H](CN(C)S(=O)(=O)c1ccccc1)OCCCC[C@@H](C)O2,inactive: 5.42%
20,COc1ccc(OC)c(NC(=O)COc2ccc3c(=O)c(-c4ccc(OC)c(OC)c4)c(C(F)(F)F)oc3c2)c1,inactive: -42.3%
21,N#C/C(=C\c1ccc(O)c(O)c1)C(=O)Nc1ccccc1,inconclusive: 57.3%
22,CC(=O)Nc1ccc(S(=O)(=O)Nc2cccc(-c3cn4ccc(C)cc4n3)c2)cc1,inconclusive: 55.6%
23,CC(Oc1ccccc1)C(=O)Nc1cccc(-c2nnc(-c3ccccc3)o2)c1 (centres undefined),active: 114%
24,CCCOc1ccc(-c2nc(SCC(N)=O)n[nH]2)cc1,inconclusive: 63.3%
25,CCc1ccc2oc(-c3cccc(NC(=O)COc4ccccc4)c3)nc2c1,active: 82%
26,O=C(O)c1ccc(NS(=O)(=O)c2cccc(C(=O)Nc3ccccc3)c2)cc1,inactive: -4.65%
27,CCOc1ccc(NC(=O)C(C)O)c([N+](=O)[O-])c1 (centres undefined),inconclusive: 50.9%

row,Compound,activation
1,CC(=O)c1ccc(NC(=O)CSc2nc(=O)cc(N)n2-c2ccccc2)cc1,inconclusive: 51.8%
2,Cc1cccc(OCC(=O)Nc2cccc(-c3nc4cc(C)cc(C)c4o3)c2)c1,inconclusive: 52.8%
3,COc1ccc(OC)c(Nc2ncnc3c2cnn3-c2ccccc2)c1,inconclusive: 70.2%
4,O=C(NCc1ccccn1)Nc1ccccc1Cl,active: 143%
5,COc1ccccc1NC(=O)CNC(=O)c1ccccc1,inconclusive: 53.8%
6,c1csc(-c2nn3c(C4COc5ccccc5O4)nnc3s2)c1 (centres undefined),active: 68.2%
7,O=C(CCCN1C(=O)c2ccccc2C1=O)Nc1ccc(Cl)cc1,inactive: -33.2%
8,O=C(COc1ccc(Br)cc1CO)Nc1ccc(F)cc1,inconclusive: 53.3%
9,Cc1cc(OCC(=O)Nc2cccc(NC(=O)c3cccc(Cl)c3)c2)ccc1Cl,inconclusive: 50.2%
10,O=C(Nc1ccncc1)Nc1c(Cl)cc(Cl)cc1Cl,inactive: -2.47%
11,CN1C(=O)C(O)(CC(=O)c2ccccn2)c2cc(Br)ccc21 (centres undefined),inactive: -14.9%
12,Cc1ccccc1Cn1ccc(NC(=O)c2nn3cccnc3c2Cl)n1,inconclusive: 51%
13,C[C@@H]1CN([C@@H](C)CO)C(=O)c2cc(NS(=O)(=O)c3ccc(F)cc3)ccc2O[C@@H](C)CCCCO[C@@H]1CN(C)S(=O)(=O)c1ccc(Cl)cc1,inactive: -23%
14,Cc1ccc2nc(Nc3nc(CSc4nnc(C)s4)cc(=O)[nH]3)nc(C)c2c1,active: 54.2%
15,CC(C)c1ccc2oc(-c3ccc(NC(=O)COc4ccc([N+](=O)[O-])cc4)cc3)nc2c1,inconclusive: 54.9%
16,COc1ccccc1-c1nnc(SCC(=O)c2ccc(NC(C)=O)cc2)o1,inconclusive: 50.5%
17,OC(CSc1nccc(-c2ccc3c(c2)OCCO3)n1)C(F)(F)F (centres undefined),inconclusive: 55.9%
18,COc1cc(NC(=O)C(C)Oc2ccc(Cl)cc2Cl)ccc1NC(=O)c1cc2ccccc2o1 (centres undefined),inconclusive: 52.6%
19,Cc1ccc(Cl)c(OCC(=O)NCc2ccco2)c1,inconclusive: 50.7%
20,Cc1cc(=O)[nH]c(Nc2nc(C)c3cccc(C)c3n2)n1,inactive: -68.4%
21,Cn1c(SCCCN2C(=O)c3cccc4cccc(c34)C2=O)nnc1-c1cccs1,inactive: 35.3%
22,CCOC(=O)c1c(C)noc1-c1csc(Nc2c(C)cc(C)cc2C)n1,inconclusive: 55.6%
23,Cn1c(-c2cc(Br)cs2)nc(=O)c2cc(Cl)ccc21,inconclusive: 69%
24,C[C@H](CO)N1C[C@H](C)[C@H](CN(C)S(=O)(=O)c2cn(C)cn2)OCCCC[C@H](C)Oc2ccc(NC(=O)Cc3ccccc3)cc2C1=O,inactive: 1.52%
25,COc1ccc2[nH]c3c(OC)ncnc3c2c1,active: 80.6%
26,COc1cc(OC)cc(-c2nnc(SCC(=O)Nc3ccc(F)cc3)o2)c1,inconclusive: 51.8%
27,Cc1ccc(Cl)c(OCC(O)Cn2cnc3ccccc32)c1 (centres undefined),inconclusive: 64.5%
